Measurements taken from PubChem BioAssay AID2451 (National Center for Advancing Translational Sciences (NCATS), 2010).
The campaign covered roughly 290,000 compounds. About 2,100 (0.72%) were called active. The inconclusive results got no clear call from the source; some entries with a clear call stand among them for comparison. The call rests on the fitted dose curve; in most records, active means well fitted inhibition curve with a large enough effect; inconclusive means small, poorly fitted or top-dose-only effect, or effect the other way; inactive means flat fitted curve, though single readings scatter. Potencies beside an inconclusive call are fits to weak or partial responses and may not hold up.

Biological target: Fructose-bisphosphate aldolase (Giardia intestinalis (strain ATCC 50803 / WB clone C6)) (UniProt A8B2U2)
Experiment: qHTS Assay for Inhibitors of Fructose-1,6-bisphosphate Aldolase from Giardia Lamblia; further: nearly all actives have a fitted effect of over 55% in size
Settings: purified Giardia FBPA; activity, negative = inhibition: at 59.6 µM (top of the series) unless noted
Summary of the method: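 40 nM FBPA preincubated 10 min at RT with compound (up to 57.5 uM final), then substrate plus GAPDH/TPI/NAD/arsenate coupling and diaphorase/resazurin added. Fluorescence read after 20 min at RT, 525/598 nm.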
On the % scale 0 is the no-effect control and ±100 the full control effect; potency means the concentration at half of the fitted maximal effect; tags describe the fitted curve by direction and shape.

Sequence of UniProt A8B2U2 (A8B2U2 whole entry, looked up): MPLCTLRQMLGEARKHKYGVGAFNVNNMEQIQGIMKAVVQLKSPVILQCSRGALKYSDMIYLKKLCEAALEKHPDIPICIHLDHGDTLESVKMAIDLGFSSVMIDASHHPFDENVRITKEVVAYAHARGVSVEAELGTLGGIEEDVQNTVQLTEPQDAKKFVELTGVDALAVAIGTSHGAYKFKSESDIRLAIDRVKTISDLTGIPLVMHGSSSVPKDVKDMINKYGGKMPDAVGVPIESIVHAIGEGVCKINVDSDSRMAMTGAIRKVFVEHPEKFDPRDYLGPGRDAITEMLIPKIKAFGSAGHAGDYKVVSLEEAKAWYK

Compound | Potency | activity, negative = inhibition
CCCC(=O)N(CCN1CCOCC1)c1nc2c(OC)ccc(OC)c2s1 | inconclusive: 31.6 µM [inhibitor, single point] | 
O=c1cc2oc3cc(O)c(O)cc3c(-c3ccccc3[N+](=O)[O-])c-2cc1O | inconclusive: 8.91 µM [inhibitor, partial curve] | 
CCN(CC)c1ccc(NC(=O)CN2C(=O)CC(C)(C)S(=O)(=O)c3ccccc32)c(C)c1 | inconclusive: 15.8 µM [inhibitor, single point] | 
C=CCNC(=S)NCC | inconclusive: 5.61 µM [inhibitor, partial curve] | 
CN1C(=O)/C(=C/c2cccc([N+](=O)[O-])c2)C(=O)N1c1ccccc1 |  | inactive: -10.3%
CCOc1ccc(C2=Nc3ccc(Br)cc3C(c3ccc(N4CCOCC4)cc3)=NN2)cc1 |  | inactive: -6.41%
COc1ccc(N(CC(=O)NC2CCCC2)C(=O)c2ccc(C)s2)c(OC)c1 |  | inactive: 10.5%
COc1ccc(NC(=O)C2CCCCN2N)cc1OCC(C)C (stereo not given) | inconclusive: 15.8 µM [inhibitor, single point] | 
Cc1ccc(-n2c(C)cc(C(=O)NS(=O)(=O)c3ccc(C)cc3)c2C)cc1 | inconclusive: 22.3 µM [activator, partial curve] | 
COc1cc(C(=O)Nc2nccs2)c(Br)c(OC)c1OC |  | inactive: -2.08%
CCN(CC)CCCN(C(=O)c1ccc(OC)cc1)c1nc(-c2ccc(OC)cc2)cs1 | inconclusive: 11.2 µM [inhibitor, partial curve, poor fit] | 
CCOC(=O)C1(CCCc2ccccc2)CCN(C(=O)CCc2cnccn2)CC1 |  | inactive: -2.41%
Cc1ccc2[nH]c(O)c(N=NC(=O)C(C)n3cnc4ccccc4c3=O)c2c1 (stereo not given) | inconclusive: 17.7 µM [inhibitor, single point] | 
COc1ccc(/C=N/c2oc(-c3ccccc3)cc2C#N)cc1OC | inconclusive: 25.1 µM [inhibitor, single point] | 
O=C(O)c1ccc(N2C(=O)CC(N3CCN(c4cccc(Cl)c4)CC3)C2=O)cc1 (stereo not given) |  | inactive: -4.73%
CCOCCCNC(=S)N1CCN(Cc2ccco2)CC1 | inconclusive: 15.8 µM [inhibitor, partial curve] | 
CC(C)c1ccc(NC(=O)c2cccc(Br)c2)cc1 | inconclusive: 15.8 µM [inhibitor, partial curve] | 
O=c1c2ccccc2nc(-c2ccco2)n1-c1nc2ccccc2s1 |  | inactive: -4.87%
Cc1cc(C)n(-c2nnc(N3CCN(c4ccccc4)CC3)nn2)n1 | inconclusive: 14.1 µM [inhibitor, partial curve] | 
O=C(Nc1ccc(F)cc1F)c1cc(=O)n(-c2ccccc2)c(=O)[nH]1 | active: 7.92 µM | 
COc1ccccc1Nc1nnc(SCc2cc(=O)n3cc(C)ccc3n2)s1 | inconclusive: 17.7 µM [inhibitor, single point] | 
NS(=O)(=O)c1nn2cc(-c3ccccc3)nc2s1 |  | inactive: 2.92%
COc1ccc2c(c1)CCc1sc(NC(=O)c3ccco3)nc1-2 | inconclusive: 15.8 µM [inhibitor, partial curve] | 
CC(C)CCNC(=O)c1c(N)n(Cc2ccc3c(c2)OCO3)c2nc3ccccc3nc12 | inconclusive: 5.61 µM [inhibitor, partial curve] | 

Compound | Potency | activity, negative = inhibition
COc1cc(/C=C(\C#N)c2nc3ccccc3n2C)cc(OC)c1O | inconclusive: 15.8 µM [inhibitor, partial curve] | 
COc1ccc(NC(=O)CC2Nc3cccc4cccc(c34)NC2=O)cc1 (stereo not given) | inconclusive: 5 µM [inhibitor, partial curve] | 
CC(C)N1CCC(=NNC(=O)c2ccccc2[N+](=O)[O-])CC1 |  | inactive: 0.498%
Cc1cc(C(=O)N/N=C2\CC(=O)CC(C)(C)C2)c2ccccc2n1 | inconclusive: 19.9 µM [inhibitor, partial curve] | 
CN(Cc1ccccc1)C(=C(Cl)Cl)C(=C1NCCN1)[N+](=O)[O-] | inconclusive: 17.7 µM [inhibitor, single point] | 
O=C(CN1CCCCCCC1)N/N=C/c1ccc([N+](=O)[O-])o1 | inconclusive: 22.4 µM [inhibitor, single point] | 
Cc1ccccc1-n1sc2cc(F)ccc2c1=O | inconclusive: 11.2 µM [inhibitor, partial curve] | 
O=C(Nc1nc(-c2ccc(Cl)s2)cs1)c1cccs1 |  | inactive: -12.9%
O=C(Cc1ccc(-n2c(=O)[nH]c3ccccc3c2=O)cc1)N1CCN(c2ccccc2)CC1 |  | inactive: -2.34%
COc1ccc(C(=O)c2ccc(OC)c3cccc(O)c23)cc1OC | inconclusive: 15.8 µM [inhibitor, partial curve] | 
COc1ccc2c(c1)c(/C=C/c1cc[n+](C)cc1)cn2C | inconclusive: 15.8 µM [inhibitor, partial curve] | 
CCn1c(=O)n(CC)c2cc(N)ccc21 | inconclusive: 8.89 µM [inhibitor, partial curve] | 
Cc1cc2nc(-c3cccnc3SCC(=O)NC3CC3)[nH]c2cc1C | inconclusive: 14.1 µM [inhibitor, partial curve] | 
O=C1NN=C(c2ccc(Cl)cc2)CC1c1cccc(Br)c1 (stereo not given) |  | inactive: -4.58%
O=C(/C(=N/N=C/c1ccc(O)c(O)c1O)c1ccccc1)c1ccccc1 | inconclusive: 3.54 µM [inhibitor, full curve] | 
Clc1ccc(OCC#CCN2CCOCC2)cc1 | inconclusive: 22.3 µM [inhibitor, partial curve] | 
CCn1cc(Cl)c(C(=O)Nc2nccs2)n1 | active: 3.98 µM | 
CCN1CCN(c2ccc(NC(=O)c3cc(OC)c(OC)c(OC)c3)cc2)CC1 | inconclusive: 25.1 µM [inhibitor, single point] | 
O=[N+]([O-])c1cccc(-c2nc3ccc([N+](=O)[O-])cc3[nH]2)c1 | inconclusive: 7.92 µM [inhibitor, partial curve] | 
Nc1ncnc2nc[nH]c12 | inconclusive: 2.24 µM [inhibitor, full curve] | 
CC(C)(C)OC(=O)N[C@@H](Cc1ccccc1)c1nnc(S(=O)(=O)Cc2cccc(F)c2)o1 |  | inactive: -4.26%
Cc1ccc(NC(=O)N/C=C/c2ccco2)cc1 | inconclusive: 3.55 µM [inhibitor, full curve] | 
FC(F)(F)c1ccc(Cl)c(-n2c(Cc3cccs3)n[nH]c2=S)c1 |  | inactive: -3.98%
COc1ccc(N2CCN(CC(=O)Nc3nc(C)cs3)CC2)cc1 | inconclusive: 14.1 µM [inhibitor, partial curve] | 

Compound | Potency | activity, negative = inhibition
CN1c2ccccc2C(=O)N2CCc3c([nH]c4ccccc34)C21 (stereo not given) |  | inactive: 1.8%
Fc1cccc(Cl)c1Cc1noc(/C=C/c2ccccc2)n1 |  | inactive: 0.785%
Oc1ccc2ccccc2c1/C=N/c1nc2c(s1)CCCC2 | inconclusive: 17.7 µM [inhibitor, partial curve] | 
Cc1cc(NC(=O)CC(C)C)c(=O)n(Cc2ccccc2F)c1 | inconclusive: 15.8 µM [inhibitor, partial curve] | 
O=C(O)CCCCCCCCCC(=O)c1cccs1 | inconclusive: 17.7 µM [activator, single point] | 
Cc1ccsc1C1Nc2ccc3ncccc3c2C2=C1C(=O)CC(C)(C)C2 (stereo not given) | inconclusive: 25.1 µM [inhibitor, single point] | 
Oc1ccc2oc3c(c2c1C=NCc1ccncc1)CCCC3 | inconclusive: 17.7 µM [inhibitor, partial curve] | 
CN(C)N1C(N)=C(C#N)C(c2ccc(Br)cc2)C2=C1CCCC2=O (stereo not given) | inconclusive: 14.1 µM [inhibitor, partial curve] | 
CN1C(=O)NC(c2ccccc2)C2=C1CN(c1ccc3ccccc3c1)C2=O (stereo not given) | inconclusive: 44.6 µM [inhibitor, single point] | 
Cc1ccc2c(c1)N(S(=O)(=O)c1ccc3c(c1)NC(=O)CC(=O)N3)CCO2 |  | inactive: 4.84%
C/C(=N\NC(=O)c1ccc(Cl)c(Cl)c1)c1ccccn1 | inconclusive: 35.5 µM [inhibitor, single point] | 
C(=C\c1ccccc1)/CN1CCN(Cc2ccc3c(c2)OCCO3)CC1 | inconclusive: 25.1 µM [inhibitor, partial curve] | 
c1ccc2c(c1)Nc1cc3ccccc3cc1S2 | inconclusive: 4.46 µM [inhibitor, full curve, poor fit] | 
O=C(c1ccc(F)cc1)N1CCN(Cc2ccccc2)CC1 | inconclusive: 14.1 µM [inhibitor, partial curve] | 
COc1ccc(CCNCc2cccc(C(F)(F)F)c2)cc1OC | inconclusive: 17.7 µM [inhibitor, partial curve] | 
CC(=O)Oc1ccc2c(=O)c(Oc3ccccc3)coc2c1OC(C)=O | inconclusive: 2.23 µM [inhibitor, full curve] | 
S=C(NCc1ccc2c(c1)OCO2)Nc1ccc2nsnc2c1 | inconclusive: 11.2 µM [inhibitor, partial curve] | 
CC(=O)C1=C(C)NC(SCC(=O)c2ccccc2)=C(C#N)C1c1ccco1 (stereo not given) | inconclusive: 17.7 µM [inhibitor, single point] | 
COc1cccc(S(=O)(=O)Nc2ccc3sc(C)nc3c2)c1 | inconclusive: 17.7 µM [inhibitor, partial curve] | 
O=[N+]([O-])c1cccc(/C([O-])=C(/C(=S)Nc2ccccc2F)[n+]2ccccc2)c1 | inconclusive: 17.7 µM [inhibitor, partial curve] | 
Cc1cccc2cc(C#N)c(SCC(=O)N3CCC(C)CC3)nc12 | inconclusive: 8.91 µM [activator, single point] | 
NC(=S)NN=C1C2CC3CC(C2)CC1C3 | active: 17.7 µM | 
